This assay concerns Plasmodium falciparum NF54 stage V gametocytes. The assay can be described thus: viability index relative to DMSO control (fraction); higher = less gametocyte killing. The conditions noted are these: 2.5 µM, incubation time: 72 h. The essentials: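 Stage V gametocytes of P. falciparum NF54 were held in serum-free screening medium at 0.75% gametocytemia and 1.25% hematocrit, 10 µl per well of a 1,536-well plate, and exposed to compound at 2.5 µM for 72 hr at 37°C under low oxygen. A 3 µl mix of 2.5 µM MitoTracker Red CMXRos with 0.13% saponin was then added for one to two hours, after which one field per well was imaged and red particles of 20–70 µm2 were counted. The viability index equals this count divided by the plate mean from wells given solvent alone.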

Where [1] appears, read: library set: Broad Institute DOS.

The structures appear in SMILES notation. ± gives the uncertainty stated by the source. Whole data set: some 9,900 compounds, median “viability index relative to DMSO control” near 1, cut for the lowest 2% near 0.85. The list shows a part of the results.

Here are results for 33 molecules from the supplement of paper PMC4723716.

Under setting [1], `Cc1cc(C(=O)Nc2ccc3c(c2)C(=O)N(C)[C@H]2CC[C@@H](CC(=O)NCc4ccc(-c5ccccc5)cc4)O[C@@H]2CO3)no1` gave a viability index of 1.12 ± 0.093. Take `CS(=O)(=O)N1[C@H](CO)[C@H](c2ccccc2)C12CN(C(=O)c1ccccc1F)C2`: under setting [1], the viability index came to 1.09 ± 0.043.

Under setting [1], `O=C(C[C@@H]1C[C@@H]2c3cc(NC(=O)Nc4ccccc4)ccc3O[C@@H]2[C@H](CO)O1)NCc1ccccc1` gave a viability index of 1.01 ± 0.018. Under setting [1], `C[C@H](CO)N1C[C@H](C)[C@H](CN(C)C(=O)c2cc(-c3ccccc3)on2)OCc2cnnn2CCCC1=O` showed a viability index of 1.04 ± 0.038.

On to `CCS(=O)(=O)N1[C@H](CO)[C@@H](c2ccccc2C2=CCCCC2)[C@@H]1C#N`, for which the viability index under setting [1] was 1.03 ± 0.013. In the case of `C[C@@H](O)C#Cc1ccc([C@@H]2[C@@H](CO)N3CCCCN(C(=O)c4ccc5c(c4)OCO5)C[C@@H]23)cc1`, the viability index under setting [1] amounted to 0.982 ± 0.088.

Molecule `CO[C@H]1CC[C@H]2CCN(C)C(=O)[C@@H](C)CN(C)C(=O)c3cc(C#N)ccc3OC[C@H]1O2` displayed a viability index under setting [1] of 1.05 ± 0.034. As to `O=C(Cc1ccccn1)N[C@H]1CC[C@H](CCNS(=O)(=O)c2cccc(F)c2)O[C@H]1CO`, the viability index under setting [1] worked out at 0.878 ± 0.14. Same read-out and setting: then `C[C@H](NC(=O)C[C@H]1CC[C@H]2[C@@H](COC[C@@H](O)CN2C(=O)Nc2cccc(Cl)c2)O1)c1ccccc1`, with 1.05 ± 0.032.

Molecule `COc1ccccc1NC(=O)N[C@@H]1CC[C@H](CCNS(=O)(=O)c2ccc(Cl)cc2)O[C@@H]1CO` came in with a viability index under setting [1] of 0.919 ± 0.1. Consider `CCNC[C@@H]1[C@H](c2ccccc2)[C@@H](CO)N1C(=O)Cc1ccccn1`, for which, under setting [1], the viability index turned out to be 1.06 ± 0.042. Same read-out and setting: then `COc1ccc(NC(=O)N2[C@@H]3CNC[C@H]2[C@@H]3c2ccc(/C=C/c3ccccc3)cc2)cc1`, with 1.05 ± 0.046. As to `COCc1cn([C@@H]2C[C@@H]3O[C@H](CO)CC[C@@H]3O[C@@H]2CCc2ccc(-c3ccc(OC)cc3)cc2)nn1`, the viability index (library set: Broad Institute Blood Stage) came out at 0.791 ± 0.041.

As for `COc1cccc(S(=O)(=O)N2C[C@@H](O)COC[C@@H]3O[C@@H](CC(=O)N4CCN(c5ccccc5)CC4)CC[C@H]32)c1`, the viability index under setting [1] was 0.971 ± 0.021.

Regarding `N#C[C@H]1[C@@H](c2ccccc2-c2cccc(F)c2)[C@@H](CO)N1C(=O)CN1CCOCC1`, the viability index under setting [1] stood at 1.134 ± 0.0063.

Regarding `COc1ccc2c3c([C@H](CO)NC[C@]33CN(Cc4ccccc4Cl)C3)n(C)c2c1`, the viability index under setting [1] was 0.995 ± 0.011.

Under setting [1], `N#C[C@@H]1[C@@H](c2ccccc2-c2ccccc2F)[C@H](CO)N1C(=O)Cc1ccccc1` registered a viability index of 1.15 ± 0.0062. On the same count and under the same terms, then `COc1ccccc1C#Cc1ccc([C@H]2[C@@H](C#N)N(C(=O)C3CCC3)[C@H]2CO)cc1`, with 0.846 ± 0.07; and `C[C@H](NC(=O)C[C@H]1C=C[C@H](NS(=O)(=O)c2cccc(F)c2)[C@@H](CO)O1)c1ccccc1`, with 1.08 ± 0.19. Still for that read-out and setting: with `C/C=C/c1ccc2n(c1=O)C[C@H]1[C@H](CO)[C@@H](C(=O)N[C@H](C)c3ccccc3)[C@@H]2N1Cc1cncnc1.C/C=C\c1ccc2n(c1=O)C[C@H]1[C@H](CO)[C@@H](C(=O)N[C@H](C)c3ccccc3)[C@@H]2N1Cc1cncnc1` the figure was 0.99 ± 0.074; with `COc1ccc2c3c([C@H](CO)N(C[C@]33CCN(CC3)C(=O)Nc3cccc(F)c3)S(C)(=O)=O)n(C)c2c1`, 1.09 ± 0.095; with `COc1ccc2c3c([C@@H](CO)N(Cc4cccc(F)c4)C[C@]33CCN(CC3)C(=O)Cc3ccccc3)n(C)c2c1`, 0.879 ± 0.033.

As to `CN1CCCCN2[C@H](CO)[C@@H](c3ccc(-c4ccc(F)cc4)cc3)[C@@H]2C1`, under setting [1], the viability index stood at 1 ± 0.011. Same read-out and setting: with `Cn1cnc(S(=O)(=O)N[C@H]2CC[C@H](CC(=O)NCC3CCCCC3)O[C@@H]2CO)c1` the figure was 1.06 ± 0.01; with `Cc1noc(C)c1S(=O)(=O)N(C)C[C@@H]1OCCCC[C@H](C)Oc2ccc(NC(=O)CCC(F)(F)F)cc2C(=O)N([C@@H](C)CO)C[C@H]1C`, 1.03 ± 0.09; with `CNC[C@H]1OCc2cnnn2CCCC(=O)N([C@@H](C)CO)C[C@@H]1C`, 1.09 ± 0.024. Same read-out and setting: with `O=C(Nc1ccc(F)cc1)N1CC(=O)N2[C@H](CO)[C@H](c3ccc(-c4cccc(F)c4)cc3)[C@H]2C1` the figure was 1.05 ± 0.019; with `C[C@H](CO)N1C[C@H](C)[C@H](CN(C)C(=O)c2ccccc2)Oc2ncc(C#Cc3ccccc3)cc2C1=O`, 0.829 ± 0.086; with `C[C@@H]1CN([C@@H](C)CO)C(=O)c2cc(NC(=O)Nc3ccccc3)ccc2O[C@@H](C)CCCCO[C@@H]1CN(C)C(=O)Nc1ccccc1`, 0.995 ± 0.05. Same read-out and setting: then `C[C@H](CO)N1C[C@H](C)[C@@H](CN(C)S(=O)(=O)c2cn(C)cn2)OCc2cnnn2CCCC1=O`, with 1.02 ± 0.045. Molecule `COc1ccc(NC(=O)N2C[C@@H](O)COC[C@H]3O[C@H](CC(=O)NCc4ccncn4)CC[C@@H]32)cc1` showed a viability index under setting [1] of 1.07 ± 0.011. Molecule `O=C(CCN1CCCCC1)NCC[C@H]1CC[C@H](NS(=O)(=O)c2cccc(Cl)c2)[C@@H](CO)O1` gave a viability index under setting [1] of 0.996 ± 0.14. Still for that read-out and setting: with `COCCNC(=O)C[C@@H]1C[C@@H]2c3cc(NC(=O)CN(C)C)ccc3O[C@@H]2[C@H](CO)O1` the figure was 1.02 ± 0.031.
